From the supplement of paper PMC3334620
The full ranking holds about 33,000 sequences; the median of “E-score (-0.5 to 0.5)” is about -0.017, and the highest 2% start at about 0.3. Some of the results follow.

molecular target: T1, Sut1 (UniProt P53032); experiment: PBM E-score (8-mer binding enrichment) (E-score (-0.5 to 0.5)); higher = stronger / more preferred TF binding; most listed sequences are background and not binding sites; conditions: protein concentration: 200 nM; construct: GST-full length
T1 sequence: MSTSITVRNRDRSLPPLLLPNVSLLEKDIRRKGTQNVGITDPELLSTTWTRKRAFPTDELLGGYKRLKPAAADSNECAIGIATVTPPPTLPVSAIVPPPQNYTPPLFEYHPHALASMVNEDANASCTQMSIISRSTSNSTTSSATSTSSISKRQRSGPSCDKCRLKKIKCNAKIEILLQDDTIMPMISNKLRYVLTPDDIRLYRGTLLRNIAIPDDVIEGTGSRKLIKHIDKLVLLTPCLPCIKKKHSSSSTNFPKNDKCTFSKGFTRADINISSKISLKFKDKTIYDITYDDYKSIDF
Protocol: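 Universal 'all 10-mer' protein binding microarrays (Agilent AMADID 015681) probed with GST-tagged S. cerevisiae TFs (full-length or DBD) made by in vitro transcription/translation (PURExpress), about 100-200 nM. Bound TF was detected with fluorescent anti-GST. Each ungapped 8-mer (which stands for itself and its reverse complement) is scored by the PBM enrichment score (E-score), a modified Wilcoxon-Mann-Whitney statistic from -0.5 to +0.5, computed with the Universal PBM Analysis Suite. Scale: above 0.35 generally sequence-specific binding.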

Row | Sequence | PBM E-score
1 | AGTACGCA | -0.0353
2 | CGGCTCTA | 0.0674
3 | CAGACTAA | -0.0981
4 | ATGTACCG | 0.129
5 | AAGGAGTG | -0.0821
6 | ACCAATAT | 0.246
7 | CTTACCCC | -0.02
8 | ACTTGTTG | -0.0742
9 | CTCAGAAA | -0.0405
10 | ATTATGGG | 0.00879
11 | ACTTCTGC | -0.0328
12 | CATGACGC | -0.171
13 | AAGGAGGC | -0.285
14 | ATAGAATA | 0.276
15 | CAAGACCA | -0.215
16 | CCCCCTCG | -0.309
17 | GTCTGCTA | 0.0584
18 | AGAGCAAA | 0.0178
19 | CCAAGAGG | -0.239
20 | CAGGAGAG | -0.199
21 | AGGGTGTC | -0.0588
22 | AGAGATAC | 0.0698

Row | Sequence | PBM E-score
23 | AAGATATA | 0.269
24 | ATCTATCA | 0.0706
25 | CCTGTGTA | 0.0463
26 | CTGCAACA | 0.0195
27 | AATACTAT | 0.2
28 | CCCTCGAC | -0.327
29 | ACCCGTAA | -0.0581
30 | CGCGGGGA | -0.00923
31 | GTACGTAC | -0.203
32 | GCAAAACA | 0.0109
33 | GTCATTCA | 0.0766
34 | ATGACAAG | 0.0389
35 | GACTTGGC | -0.0784
36 | GAGCCTTA | 0.038
37 | CGTCGGCC | -0.174
38 | TTACTGAA | 0.142
39 | GTACACGA | -0.101
40 | CCGTATGA | 0.175
41 | ATAGATAC | 0.107
42 | CGCGCTGA | -0.116
43 | AGCAGTCC | -0.0327
44 | GACATTCA | 0.132

Row | Sequence | PBM E-score
45 | GACAAATC | 0.0726
46 | CTAAGACA | -0.155
47 | AGGCCCTG | -0.302
48 | CCGGTTTC | 0.0671
49 | GAAAAAAA | 0.225
50 | CAAAAGGG | 0.127
51 | TCTGCTCA | -0.183
52 | GAAAAGAC | 0.154
53 | CGCCTTAC | -0.137
54 | GAAATGCA | 0.177
55 | GCGCTGCC | -0.266
56 | CAATCGAG | -0.309
57 | CATTCCCC | 0.0871
58 | ACCATGTC | 0.0433
59 | CGGTTTTA | 0.0984
60 | CCTAAGCA | -0.0741
61 | CTGCTATA | 0.126
62 | GCGTGACA | -0.0732
63 | CGCTGGAA | 0.00423
64 | GGAAGTAA | 0.123
65 | CCGAATTC | 0.212
66 | GACATGAC | -0.194

Row | Sequence | PBM E-score
67 | GGTAATTA | 0.201
68 | CGACGGCA | -0.283
69 | ATCACGGG | -0.0946
70 | AAGCTCTA | -0.0336
71 | GAAGCTGA | 0.0675
72 | CACTACGA | -0.0264
73 | GGATTAGA | 0.0186
74 | AGATAACG | 0.157
75 | AGTTTTTG | 0.28
76 | GATTTACA | 0.187
77 | GCACCGAC | -0.0581
78 | ACGTTGCT | -0.0587
79 | CACTGTAC | -0.112
80 | CATAATGC | 0.00682
81 | GGCAGGAC | -0.36
82 | GAACGACA | -0.0146
83 | GCCTCCCA | -0.219
84 | CGTTACCA | -0.0543
85 | CTTATTTC | 0.207
86 | ATTACTTA | 0.327
87 | CCGTACCA | 0.134
88 | CTAAACAG | -0.0773

Row | Sequence | PBM E-score
89 | CCCCGACG | 0.0421
90 | CGGTGACA | 0.0501
91 | AACATGTG | 0.128
92 | CATAGCAC | 0.051
93 | AACCCGCG | -0.0758
94 | CTAAAGAG | -0.00543
95 | CTAGACGC | -0.0143
96 | GAATCATA | 0.154
97 | AAAAGTGC | 0.0634
98 | CATCACTA | 0.132
99 | GTCATAAC | 0.00303
100 | AGGCCAGA | -0.0679
101 | CCGGTTTA | 0.0276
102 | CCACCGGG | -0.0405
103 | CATTTAAA | 0.226
104 | AGATCATA | 0.155
105 | CCGCAAGA | 0.06
106 | ACAGAAAA | 0.00533
107 | AAACTCCT | 0.016
108 | AATATAGA | 0.166
109 | AGGTGCAC | -0.143
